# Like-named read-outs stand apart in the source and are kept apart here.
# Tests used:
# Assay in all cases: cell-based
# [1] = biological target: T1, CAT1 (cationic amino acid transporter 1, CAT1/SLC7A1) (Homo sapiens, UniProt P30825); design: species or system HEK-CAT1 (HEK293 stably transfected); Inhibition of net CAT1-mediated [3H]-ADMA (1 uM) uptake, 2.5 min, scintillation counting, vector control subtracted; settings: HEK293, ADMA 1 uM as substrate; for inhibition at 20 µM: read-out: % Inhibition of ADMA uptake at 20 µM; for inhibition at 200 µM: read-out: % Inhibition of ADMA uptake at 200 µM
# T1 construct: full-length human transporter stably transfected in HEK cells (HEK-CAT1); net uptake against HEK-VC vector control cells
# Procedure: (§1) Uptake and inhibition assays using HEK-CAT1 and HEK-VC cells and L-arginine, L-homoarginine, and ADMA as substrates were performed using the protocol described (Strobel et al. [2012]; Chafai et al. [2017]). Briefly, after incubation, the supernatant was replaced with transport buffer containing [^3H]- L-arginine for 5 min and 2.5 min for medium containing [^3H]-L-homoarginine or [^3H]-ADMA with or without the test compound. The reference drugs were screened at concentrations of 20 µM (Figs. 1A, 2A, and 3A) and 200 µM (Figs. 1B, 2B, and 3B). […] The net uptake was determined by subtracting the total amount taken up by control cells from the amount taken up by CAT1-expressing cells, which was expressed as a percentage of the amount taken up by the control. To determine the inhibitory effects of the drugs on CAT1-mediated transport of L-arginine, L-homoarginine, or ADMA, the control was measured in the absence of the potential inhibitor. The value for the percent inhibition was calculated as: Inhibition (%) = 100 – (V/V0 ^* 100), where V and V0 are the net uptake rates (uptake into HEK-CAT1 cells—uptake into HEK-VC cells) with and without test drugs, respectively. […] Each bar represents the effect of one compound on CAT1-mediated ADMA (1 μM) uptake as percent inhibition. Data were obtained from at least two independent experiments performed in triplicate (n = 6–9) and each test data from the independent experiment were normalized to the respective control data to get the value of percent inhibition. Negative inhibition values indicate stimulated CAT1-mediated uptake. Data were analyzed using one-way ANOVA and Dunnett’s multiple comparison test with p < 0.05. Bars showing a statistically significant inhibition or transport stimulation are shaded in black
# [2] = biological target: T1, CAT1 (cationic amino acid transporter 1, CAT1/SLC7A1); design: species or system HEK-CAT1 (HEK293 stably transfected); Inhibition of net CAT1-mediated [3H]-L-arginine (100 uM) uptake, 5 min, scintillation counting, vector control subtracted; settings: HEK293, L-arginine 100 uM as substrate; for inhibition at 20 µM: read-out: % Inhibition of L-arginine uptake at 20 µM; for inhibition at 200 µM: read-out: % Inhibition of L-arginine uptake at 200 µM
# Procedure: as §1, with “L-arginine (100” for “ADMA (1”
# [3] = biological target: T1, CAT1 (cationic amino acid transporter 1, CAT1/SLC7A1); design: species or system HEK-CAT1 (HEK293 stably transfected); Inhibition of net CAT1-mediated [3H]-L-homoarginine (1 uM) uptake, 2.5 min, scintillation counting, vector control subtracted; settings: HEK293; L-homoarginine 1 uM as substrate; read-out: % Inhibition of L-homoarginine uptake at 20 µM
# Procedure: as §1, with “CAT1-mediated L-homoarginine” for “CAT1-mediated ADMA”, “inhibition. […]” for “inhibition. Data were obtained from at least two independent experiments performed in triplicate (n = 6–9) and each test data from the independent experiment were normalized to the respective control data to get the value of percent inhibition. Negative inhibition values indicate stimulated CAT1-mediated uptake.”, “0.05. […]” for “0.05. Bars showing a statistically significant inhibition or transport stimulation are shaded in black”
# T1 sequence (P30825 whole entry): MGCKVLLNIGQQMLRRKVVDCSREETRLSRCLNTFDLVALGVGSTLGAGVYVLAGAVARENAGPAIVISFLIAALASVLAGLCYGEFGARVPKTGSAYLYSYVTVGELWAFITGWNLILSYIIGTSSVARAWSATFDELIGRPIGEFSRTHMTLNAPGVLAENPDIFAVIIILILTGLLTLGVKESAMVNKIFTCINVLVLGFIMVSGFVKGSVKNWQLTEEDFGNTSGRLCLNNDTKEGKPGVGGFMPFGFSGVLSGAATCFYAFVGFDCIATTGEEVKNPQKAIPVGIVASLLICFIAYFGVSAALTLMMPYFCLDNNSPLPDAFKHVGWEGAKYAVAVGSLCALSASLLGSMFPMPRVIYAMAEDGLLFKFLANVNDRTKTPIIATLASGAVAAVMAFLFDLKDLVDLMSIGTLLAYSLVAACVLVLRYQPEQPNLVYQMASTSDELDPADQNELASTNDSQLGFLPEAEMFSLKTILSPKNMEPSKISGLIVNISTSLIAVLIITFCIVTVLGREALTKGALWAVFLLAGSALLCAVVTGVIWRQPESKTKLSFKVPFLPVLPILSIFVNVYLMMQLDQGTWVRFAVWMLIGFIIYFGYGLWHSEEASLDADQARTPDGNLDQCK
Structure (SMILES),inhibition at 20 µM [1] [%],inhibition at 200 µM [1] [%],inhibition at 20 µM [2] [%],inhibition at 200 µM [2] [%],inhibition at 20 µM [3] [%]
NS(=O)(=O)c1cc(C(=O)O)c(NCc2ccco2)cc1Cl [Furosemide],4.8 ± 9.4,-14.4 ± 4,17.5 ± 8.8,12.9 ± 2.6,
CC(C)NCC(O)COc1ccc(CC(N)=O)cc1 (centres unmarked) [Atenolol],-0.5 ± 5.9,-8.9 ± 14.8,-0.8 ± 5.3,,

# Second part, the compound after the results:
inhibition at 20 µM [1] [%],inhibition at 200 µM [1] [%],inhibition at 20 µM [2] [%],inhibition at 200 µM [2] [%],inhibition at 20 µM [3] [%],Structure (SMILES)
6.7 ± 4,11.5 ± 2.7,-3.1 ± 6.6,20.3 ± 1.7,-3.1 ± 6.6,COc1ccc2cc([C@H](C)C(=O)O)ccc2c1 [Naproxen]
-13.7 ± 1.4,-48.1 ± 12,20.1 ± 0.9,1.8 ± 2.7,,Nc1ccc(S(N)(=O)=O)cc1 [Sulfanilamide]
36 ± 3.5,-17.1 ± 2.8,-8.6 ± 3.6,0.9 ± 0.8,,Cc1cc(NS(=O)(=O)c2ccc(N)cc2)no1 [Sulfamethoxazole]
